The whole screen tested about 360,000 compounds, of which about 7,500 (2.1%) were called active. Inconclusive means that the source gave no clear call. Such entries were picked first, then a sample of the others. The call rests on the fitted dose curve; in most records, active means well fitted cell-killing curve with a large enough effect; inconclusive means small, poorly fitted or top-dose-only effect, or effect the other way, or another doubt; inactive means no such curve, though single readings can be large or run the other way. Potencies of inconclusive entries are left out as doubtful fits.
Assay: qHTS for induction of synthetic lethality in tumor cells producing 2HG: qHTS for the HT-1080-IDH1KD cell line;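 on activity, negative = toxicity: 0% = DMSO wells and -100% = cell-free medium wells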
Conditions: HT-1080 IDH1 knockdown viability, ATP luminescence, 48 h; activity, negative = toxicity: at 46.1 µM (top of the series) unless noted
How it was run: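 Luminescent ATP read-out (CellTiter-Glo, 10 min at room temperature) after 48 h compound exposure at 37 °C gave viability of IDH1-knockdown HT-1080 cells. Activity was normalised to DMSO and cell-free wells, then fitted as concentration-response curves.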
Potency means the concentration at half of the fitted maximal effect; tags describe the fitted curve by direction and shape.

Row | SMILES | Potency | activity, negative = toxicity
1 | CCSc1nc(C)c(CCOc2cccc(C)c2)c(=O)[nH]1 | inconclusive [rising, single point] | 
2 | CCOC(=O)N1CCN(Cc2ccc(O)c3ncccc23)CC1 | active: 6.51 µM | 
3 | Cc1ccc(C)c(N2CCN(C(=O)C3CCN(S(=O)(=O)c4c(C)noc4C)CC3)CC2)c1 | active: 18.4 µM | 
4 | COc1ccccc1C(=O)NNC(=S)NC(=O)c1ccco1 | inconclusive [cytotoxic, partial curve, poor fit] | 
5 | O=S(=O)(c1ccccc1)N1CCN=C1SCc1cccnc1 |  | inactive: 16.5%
6 | Cc1c(N=C2SC(CC(=O)Nc3ccccc3)C(=O)N2CCN2CCOCC2)c(=O)n(-c2ccccc2)n1C (centres undefined) |  | inactive: 0.6%
7 | COc1ccc(C(CNC(=O)c2ccc(-c3ccccc3)cc2)N(C)C)cc1OC (centres undefined) | active: 20.6 µM | 
8 | CC1CCCC(C)N1C(=O)CN1CCN(c2nc(-c3ccc(F)cc3)cs2)CC1 (centres undefined) | inconclusive [cytotoxic, single point] | 
9 | C(=N\Nc1nc2ccccc2[nH]1)/c1c[nH]c2ccccc12 | inconclusive [cytotoxic, single point] | 
10 | O=S(=O)(NC12CC3CC(CC(C3)C1)C2)c1ccc(F)cc1 | inconclusive [cytotoxic, single point] | 
11 | CC(C)Oc1ccc(C2CC(=O)N(c3cccc(Br)c3)C2=O)cc1 (centres undefined) |  | inactive: -0.494%
12 | CC1(C(=O)NS(=O)(=O)C2CC2)CCCN(C(=O)COc2ccccc2)C1 (centres undefined) |  | inactive: 0%
13 | COc1ccc(C(=O)NCCc2c[nH]c3ccccc23)cc1S(=O)(=O)N1CCCCC1C (centres undefined) | inconclusive [cytotoxic, single point] | 
14 | O=c1cc(CSc2nc3ccccc3[nH]2)c2ccccc2[nH]1 | inconclusive [rising, full curve, poor fit] | 
15 | O=C(c1ccc([N+](=O)[O-])cc1)N1CCSC1c1cccc(Cl)c1 (centres undefined) | inconclusive [cytotoxic, single point] | 
16 | CS(=O)(=O)c1ccc2nc(NC(=O)C3CCCCC3)sc2c1 | inconclusive [cytotoxic, single point] | 
17 | CC(=O)C1=C(O)C(=O)N(c2ccc(Br)cc2)C1c1cccc(F)c1 (centres undefined) | inconclusive [cytotoxic, partial curve] | 
18 | O=C(Oc1c(Br)cc([N+](=O)[O-])cc1Br)c1cccnc1 | inconclusive [cytotoxic, single point] | 
19 | O=c1c(-c2nnc(SCc3ccc(Cl)cc3)o2)cccn1Cc1ccccc1 | inconclusive [cytotoxic, single point] | 
20 | O=C(CSc1ncccn1)Nc1ccc(Cl)c(S(=O)(=O)N2CCOCC2)c1 |  | inactive: 8.63%
21 | COc1ccccc1N1CCN(C(=O)c2ccccc2N(C)S(=O)(=O)c2ccc(C)cc2)CC1 |  | inactive: 6.26%
22 | NS(=O)(=O)c1ccc(CCNCc2cc(Br)ccc2OCc2ccccc2F)cc1 | active: 23.1 µM | 
23 | O=C(NCc1ccc(C(F)(F)F)cc1)c1cccc2c(-c3cccnc3)coc12 | inconclusive [cytotoxic, partial curve] | 

Row | SMILES | Potency | activity, negative = toxicity
24 | Cc1ccc(S(=O)(=O)N2[C@H](CC(=O)c3cccs3)OC[C@@H]2C(C)C)cc1 | inconclusive [cytotoxic, single point] | 
25 | COc1ccc(-n2c(C)cc(C3=NNC(=NC4CC4)SC3)c2C)cc1 | active: 20.6 µM | 
26 | Cc1cccc(N2CCN(C(=O)C3CCN(c4ncnc5c4nc4n5CCCCC4)CC3)CC2C)c1 (centres undefined) | inconclusive [cytotoxic, partial curve] | 
27 | CCN(CC)C(=S)SCC(=O)c1ccc(F)cc1 | inconclusive [cytotoxic, single point] | 
28 | Cc1ccc2c(c1)C1CC(C)(O2)N(c2cccc(C(=O)NC3CCN(Cc4ccccc4)CC3)c2)C(=O)N1 (centres undefined) | inconclusive [cytotoxic, single point] | 
29 | CC(/C=C/c1ccccc1F)=N\NC(=O)c1ccccc1 | inconclusive [cytotoxic, single point] | 
30 | CCCCC(=O)OCC(=O)Nc1ccc(C)c(F)c1 |  | inactive: 1.11%
31 | Cc1cc(=O)[nH]c(SCC(=O)Nc2ccc(F)cc2)c1C#N | inconclusive [cytotoxic, single point] | 
32 | COc1ccc(C(=O)N(C)Cc2ccccn2)cc1OC1CCN(C(C)C)CC1 |  | inactive: 9.11%
33 | CCOc1nc(N2CCCCC2)nc(-n2cc(-c3ccccc3)nn2)n1 |  | inactive: 22.8%
34 | O=C1CC(=O)OC(c2ccc([N+](=O)[O-])cc2)O1 | active: 4.61 µM | 
35 | Cc1cc(C)cc(N2C(N)=NC(N)=NC2c2cccc(Cl)c2)c1 (centres undefined) | inconclusive [cytotoxic, single point] | 
36 | Cc1ccc(NC(=O)CCC(=O)N/N=C/c2cc([N+](=O)[O-])ccc2O)cc1 | inconclusive [cytotoxic, single point] | 
37 | CCN(CC)C(=O)C1=C(C)N(Cc2ccc(OC)cc2)C(=O)C(CC(=O)NC2CCCC2)C1 (centres undefined) |  | inactive: -2.93%
38 | CCOC(=O)[C@]12Cc3c(cc(OC)c(OC)c3OC)[C@H]1N(Cc1ccccc1)C(=O)c1cc(OC)ccc12 | inconclusive [cytotoxic, single point] | 
39 | O=C(O)C1C2CCC(O2)C1C(=O)Nc1cccc(Cl)c1 (centres undefined) | inconclusive [cytotoxic, single point] | 
40 | Cc1cc(C(=O)Nc2sc3c(c2C#N)CCC(C)C3)no1 (centres undefined) |  | inconclusive: -60.3%
41 | Cc1ccccc1CNc1ncnc2cc(Cl)ccc12 | inconclusive [cytotoxic, partial curve] | 
42 | COc1ccc(NC(=S)NCCC(c2ccccc2)c2ccccc2)c(OC)c1 | active: 22.4 µM | 
43 | CCCCSc1ccc(NC(=O)c2cccnc2)cc1 | inconclusive [cytotoxic, single point] | 
44 | CCOc1ccc(CCN2C(=O)C(=O)N([C@@H](CC(C)C)CN3CCC[C@@H]3CN3C(=O)C(=O)NC[C@@H]3Cc3ccccc3)C[C@@H]2Cc2ccc(O)cc2)cc1 |  | inactive: -8.51%
45 | CCCC(=O)NC(=S)Nc1ccc(S(=O)(=O)Nc2ccc(OCC)cc2)cc1 | active: 23.1 µM | 
46 | NC(=O)CSc1nc2ccccc2n1Cc1ccccc1F |  | inactive: -15.2%

Row | SMILES | Potency | activity, negative = toxicity
47 | N#Cc1ncccc1CCc1cccc(Cl)c1 |  | inactive: 4.99%
48 | CCCCOc1ccc(C(=O)N2CCC(C)CC2)cc1 |  | inactive: -3.81%
49 | C[C@H](CO)N1C[C@H](C)[C@@H](CN(C)S(=O)(=O)c2ccccc2)Oc2c(NC(=O)NC3CCCCC3)cccc2C1=O |  | inactive: -10.3%
50 | CC1=C(C(=O)N(C(C)C)C(C)C)CC(CC(=O)NCCCCc2ccccc2)C(=O)N1Cc1ccc(F)cc1 (centres undefined) | inconclusive [cytotoxic, single point] | 
51 | COc1cc2c(C(=O)N3CCN(C)CC3)c(CSc3ccccc3)n(C)c2cc1Br | inconclusive [cytotoxic, single point] | 
52 | Cc1nnc(NC(=O)c2ccc(S(=O)(=O)N(C)Cc3ccccc3)cc2)o1 | inconclusive [cytotoxic, partial curve] | 
53 | CCN(CC)C(=O)c1cccc(-c2csc(C(O)c3ccc(OC)cc3)n2)c1 (centres undefined) | inconclusive [cytotoxic, single point] | 
54 | Cn1c(O)c(N=NC(=S)Nc2ccccc2F)c2cc(S(=O)(=O)N3CCOCC3)ccc21 |  | inconclusive: -30.8% [cytotoxic]
55 | COc1ccc(CCNc2ncnc3sccc23)cc1OC | inconclusive [cytotoxic, full curve] | 
56 | Cc1ccc(C(=O)CSc2nc(C)cc(C)c2C(N)=O)cc1 | inconclusive [cytotoxic, partial curve] | 
57 | CC(C)(C)c1ccc(NC(=O)c2cc(C3CCCN(S(=O)(=O)c4cccc5cccnc45)C3)on2)cc1 (centres undefined) |  | inconclusive: -27.2% [cytotoxic]
58 | Cc1cc(SCC(=O)NC(=O)NCc2ccco2)nc2c(C)cccc12 | inconclusive [cytotoxic, single point] | 
59 | Cc1cccc(C(=O)N2CCC(=O)N([C@H](COCc3ccc(Cl)cc3)Cc3ccccc3)CC2)c1 | inconclusive [cytotoxic, single point] | 
60 | COc1ccc(C2CC(c3ccccc3)=NN2C(=O)c2ccc(Cl)c([N+](=O)[O-])c2)cc1 (centres undefined) | inconclusive [cytotoxic, single point] | 
61 | Cc1ccc(C(CC(=O)NCCCN(C)C)c2ccc(OC(C)C)cc2)cc1 (centres undefined) | inconclusive [cytotoxic, partial curve] | 
62 | Cc1noc(C)c1S(=O)(=O)N1CCC(C(=O)NC2CCN(Cc3ccccc3)CC2)CC1 |  | inconclusive: -13.1% [cytotoxic]
63 | O=C(/C=C/c1ccco1)NCc1ccc2c(c1)OCO2 |  | inactive: 0.192%
64 | CNC(=O)c1[nH]nc2c1CCc1ccccc1-2 |  | inactive: 6.23%
65 | C=CCOc1c(Br)cc(CNc2ccc(NC(=O)C(C)C)c(OC)c2)cc1OC | inconclusive [cytotoxic, single point] | 
66 | COc1cc(C(=O)N2c3ccccc3CCC2C)cc(OC)c1OC (centres undefined) | inconclusive [cytotoxic, single point] | 
67 | Cc1ccc(C(c2nnnn2Cc2ccccc2)N2CCN(Cc3ccccc3)CC2)cc1 (centres undefined) | inconclusive [cytotoxic, single point] | 
68 | COc1ccc(-c2cc3c(c4c2ccn4C)C2CCC3C2)cc1 (centres undefined) | inconclusive [cytotoxic, single point] | 
69 | O=C(Nc1cccc(Cl)c1)N(Cc1nc2ccccc2c(=O)[nH]1)C1CCCC1 | inconclusive [cytotoxic, single point] | 
